# The supplement of paper PMC8728848
# Some of the results follow.
# B1: CC1G-10077 (Coprinopsis cinerea), A8NDT7 (protein)
# chain: MALNEGVYWIRNSRFTNKVLDLDAANVAKGTSILDFNEHGTFNENHNQLWIVERFQSRDTYLIRSVHSNLVLDLSQGLSANGTPILCWTQHGGTNQQWRIEWVKDDNKTPLYRIVSVATGTAISHNEDDSSAYTVAWSVDDGPKQLWSFDPFVTPLLYRLRVKSTSRVLDLAAASADNGTLALAWEQHTAITKRNQLWWLPYRSGAEEYTIQCLETSTVADLSGGNSGNGTPIYGWQSHGGRNQQWKFEPTSDSGDYYHIKNVEGGSVMDAYMNDSQKRVGGWSNNGGDNQKWLLDPLPSPGPGWVLIQNGGTGKFLCSTPSGDIGTADGPETVYDYSVQWRFIQREYTGVYHVVNRATGAYLRQIGTSMPSIGLAEENDDELKDWWMLETYDNSEIGLASIISRWTGNVLDHYGGVSVQALDNNTENSYRSWAIIPARDWLTSFSLVNGQGGLCLAAQYAREETRLSTTANVNDFHAQWVFRKPSGSSGYTIQNKYNNHYVGGTSARWELVVCCNKYFGIRNTSTQKYLAIEDGQVTFQDQDMTDRKQCWELCSGRATDTSGNDYDLIYMDDDLLEVMIPWVGDKQGDLKHYIEKRATKKPPKDKGGWQLPAAGLIKKPKFNDIRQLLQELIEQWEWDVVNEEREQIQTLVSIDEAEARRLLGRRPHPDIVAAYQRSRSSTLFRIDRQGYFNIAGDRYVNIQGQYGDDSYFHIALPVGVRFGREQIRRFLRDSLDRSTSVTITPTTCKPPSGGPDYNRDPDSDGDNSWIKWTIAVVGTSAIKHSEL
# Columns and labels:
# Test in all cases: glycan array binding signal (z-score within array); higher = stronger binding
# Details in all cases: glycan notation: IUPAC condensed, linker removed
# [1] = biological target: Fuc(a1-2)Gal6S(b1-3)GlcNAc
# Outline: (§1)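 The Consortium for Functional Glycomics database supplied 3228 glycan arrays, of which those lacking an available protein sequence were dropped. The binding signal, a within-array Z-score, was averaged across arrays of the same protein sequence and across linkers. Negative scores can be read as non-binding.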
# [2] = biological target: Fuc(a1-2)Gal6S(b1-3)GlcNAc6S
# Outline: as §1
# Fuc(a1-2)Gal6S(b1-4)Glc = biological target: Fuc(a1-2)Gal6S(b1-4)Glc
# Outline: as §1
# [3] = biological target: Fuc(a1-2)Gal6S(b1-4)Glc6S
# Outline: as §1
# Fuc(a1-2)[Gal(a1-3)]Gal = biological target: Fuc(a1-2)[Gal(a1-3)]Gal
# Outline: as §1
# [4] = biological target: Fuc(a1-2)[Gal(a1-3)]Gal(b1-3)GalNAc
# Outline: as §1
# [5] = biological target: Fuc(a1-2)[Gal(a1-3)]Gal(b1-3)GalNAc(b1-3)Gal(a1-4)Gal(b1-4)Glc
# Outline: as §1
# [6] = biological target: Fuc(a1-2)[Gal(a1-3)]Gal(b1-3)GlcNAc
# Outline: as §1
# [7] = biological target: Fuc(a1-2)[Gal(a1-3)]Gal(b1-3)GlcNAc(b1-2)Man(a1-3)[Fuc(a1-2)[Gal(a1-3)]Gal(b1-3)GlcNAc(b1-2)Man(a1-6)]Man(b1-4)GlcNAc(b1-4)GlcNAc
# Outline: as §1
# [8] = biological target: Fuc(a1-2)[Gal(a1-3)]Gal(b1-3)GlcNAc(b1-2)Man(a1-3)[Fuc(a1-2)[Gal(a1-3)]Gal(b1-3)GlcNAc(b1-2)Man(a1-6)]Man(b1-4)GlcNAc(b1-4)[Fuc(a1-6)]GlcNAc
# Outline: as §1
# [9] = biological target: Fuc(a1-2)[Gal(a1-3)]Gal(b1-3)GlcNAc(b1-3)GalNAc
# Outline: as §1
# [10] = biological target: Fuc(a1-2)[Gal(a1-3)]Gal(b1-3)GlcNAc(b1-6)GalNAc
# Outline: as §1
# [11] = biological target: Fuc(a1-2)[Gal(a1-3)]Gal(b1-4)Glc
# Outline: as §1
# [12] = biological target: Fuc(a1-2)[Gal(a1-3)]Gal(b1-4)GlcNAc
# Outline: as §1
# [13] = biological target: Fuc(a1-2)[Gal(a1-3)]Gal(b1-4)GlcNAc(b1-2)Man
# Outline: as §1
# [14] = biological target: Fuc(a1-2)[Gal(a1-3)]Gal(b1-4)GlcNAc(b1-2)Man(a1-3)[Fuc(a1-2)[Gal(a1-3)]Gal(b1-4)GlcNAc(b1-2)Man(a1-6)]Man(b1-4)GlcNAc(b1-4)GlcNAc
# Outline: as §1
# [15] = biological target: Fuc(a1-2)[Gal(a1-3)]Gal(b1-4)GlcNAc(b1-2)Man(a1-3)[Fuc(a1-2)[Gal(a1-3)]Gal(b1-4)GlcNAc(b1-2)Man(a1-6)]Man(b1-4)GlcNAc(b1-4)[Fuc(a1-6)]GlcNAc
# Outline: as §1
# [16] = biological target: Fuc(a1-2)[Gal(a1-3)]Gal(b1-4)GlcNAc(b1-3)GalNAc
# Outline: as §1
# [17] = biological target: Fuc(a1-2)[Gal(a1-3)]Gal(b1-4)GlcNAc(b1-3)[Fuc(a1-2)[Gal(a1-3)]Gal(b1-4)GlcNAc(b1-6)]GalNAc
# Outline: as §1
# [18] = biological target: Fuc(a1-2)[Gal(a1-3)]Gal(b1-4)GlcNAc(b1-6)GalNAc
# Outline: as §1
# [19] = biological target: Fuc(a1-2)[Gal(a1-3)]Gal(b1-4)[Fuc(a1-3)]Glc
# Outline: as §1
# [20] = biological target: Fuc(a1-2)[Gal(a1-3)]Gal(b1-4)[Fuc(a1-3)]GlcNAc
# Outline: as §1
# [21] = biological target: Fuc(a1-2)[Gal(a1-3)]Gal(b1-4)[Fuc(a1-3)]GlcNAc(b1-3)GalNAc
# Outline: as §1
# [22] = biological target: Fuc(a1-2)[Gal(a1-4)]Gal(b1-4)GlcNAc
# Outline: as §1
# [23] = biological target: Fuc(a1-2)[GalNAc(a1-3)]Gal
# Outline: as §1
# [24] = biological target: Fuc(a1-2)[GalNAc(a1-3)]Gal(b1-3)GalNAc(a1-3)[Fuc(a1-2)]Gal(b1-4)GlcNAc
# Outline: as §1
# [25] = biological target: Fuc(a1-2)[GalNAc(a1-3)]Gal(b1-3)GalNAc(b1-3)Gal(a1-4)Gal(b1-4)Glc
# Outline: as §1
# [26] = biological target: Fuc(a1-2)[GalNAc(a1-3)]Gal(b1-3)GlcNAc
# Outline: as §1
# [27] = biological target: Fuc(a1-2)[GalNAc(a1-3)]Gal(b1-3)GlcNAc(b1-2)Man(a1-3)[Fuc(a1-2)[GalNAc(a1-3)]Gal(b1-3)GlcNAc(b1-2)Man(a1-6)]Man(b1-4)GlcNAc(b1-4)GlcNAc
# Outline: as §1
# [28] = biological target: Fuc(a1-2)[GalNAc(a1-3)]Gal(b1-3)GlcNAc(b1-2)Man(a1-3)[Fuc(a1-2)[GalNAc(a1-3)]Gal(b1-3)GlcNAc(b1-2)Man(a1-6)]Man(b1-4)GlcNAc(b1-4)[Fuc(a1-6)]GlcNAc
# Outline: as §1
# [29] = biological target: Fuc(a1-2)[GalNAc(a1-3)]Gal(b1-3)GlcNAc(b1-3)GalNAc
# Outline: as §1
# [30] = biological target: Fuc(a1-2)[GalNAc(a1-3)]Gal(b1-3)GlcNAc(b1-6)GalNAc
# Outline: as §1
# [31] = biological target: Fuc(a1-2)[GalNAc(a1-3)]Gal(b1-4)Glc
# Outline: as §1
# [32] = biological target: Fuc(a1-2)[GalNAc(a1-3)]Gal(b1-4)GlcNAc
# Outline: as §1
# [33] = biological target: Fuc(a1-2)[GalNAc(a1-3)]Gal(b1-4)GlcNAc(b1-2)Man
# Outline: as §1
# [34] = biological target: Fuc(a1-2)[GalNAc(a1-3)]Gal(b1-4)GlcNAc(b1-2)Man(a1-3)[Fuc(a1-2)[GalNAc(a1-3)]Gal(b1-4)GlcNAc(b1-2)Man(a1-6)]Man(b1-4)GlcNAc(b1-4)GlcNAc
# Outline: as §1
# [35] = biological target: Fuc(a1-2)[GalNAc(a1-3)]Gal(b1-4)GlcNAc(b1-2)Man(a1-3)[Fuc(a1-2)[GalNAc(a1-3)]Gal(b1-4)GlcNAc(b1-2)Man(a1-6)]Man(b1-4)GlcNAc(b1-4)[Fuc(a1-6)]GlcNAc
# Outline: as §1
# [36] = biological target: Fuc(a1-2)[GalNAc(a1-3)]Gal(b1-4)GlcNAc(b1-3)Gal(b1-4)GlcNAc
# Outline: as §1
# [37] = biological target: Fuc(a1-2)[GalNAc(a1-3)]Gal(b1-4)GlcNAc(b1-3)Gal(b1-4)GlcNAc(b1-3)Gal(b1-4)GlcNAc
# Outline: as §1
# [38] = biological target: Fuc(a1-2)[GalNAc(a1-3)]Gal(b1-4)GlcNAc(b1-3)GalNAc
# Outline: as §1
# [39] = biological target: Fuc(a1-2)[GalNAc(a1-3)]Gal(b1-4)GlcNAc(b1-3)[Fuc(a1-2)[GalNAc(a1-3)]Gal(b1-4)GlcNAc(b1-6)]GalNAc
# Outline: as §1
# [40] = biological target: Fuc(a1-2)[GalNAc(a1-3)]Gal(b1-4)GlcNAc(b1-6)GalNAc
# Outline: as §1
# [41] = biological target: Fuc(a1-2)[GalNAc(a1-3)]Gal(b1-4)[Fuc(a1-3)]GlcNAc
# Outline: as §1
# [42] = biological target: Fuc(a1-2)[GalNAc(a1-3)]Gal(b1-4)[Fuc(a1-3)]GlcNAc(b1-3)GalNAc
# Outline: as §1
# [43] = biological target: Fuc(a1-2)[GalNAc(a1-4)]Gal(b1-4)GlcNAc
# Outline: as §1
binder,measurement,setting,value
B1,glycan array binding signal (z-score),[1],-0.447
same,glycan array binding signal (z-score),[2],-0.434
same,glycan array binding signal (z-score),Fuc(a1-2)Gal6S(b1-4)Glc,-0.425
same,glycan array binding signal (z-score),[3],-0.475
same,glycan array binding signal (z-score),Fuc(a1-2)[Gal(a1-3)]Gal,-0.478
same,glycan array binding signal (z-score),[4],-0.402
same,glycan array binding signal (z-score),[5],-0.481
same,glycan array binding signal (z-score),[6],-0.466
same,glycan array binding signal (z-score),[7],-0.464
same,glycan array binding signal (z-score),[8],-0.476
same,glycan array binding signal (z-score),[9],-0.488
same,glycan array binding signal (z-score),[10],0.202
same,glycan array binding signal (z-score),[11],-0.408
same,glycan array binding signal (z-score),[12],-0.459
same,glycan array binding signal (z-score),[13],-0.407
same,glycan array binding signal (z-score),[14],-0.368
same,glycan array binding signal (z-score),[15],-0.469
same,glycan array binding signal (z-score),[16],-0.404
same,glycan array binding signal (z-score),[17],-0.279
same,glycan array binding signal (z-score),[18],-0.501
same,glycan array binding signal (z-score),[19],-0.43
same,glycan array binding signal (z-score),[20],-0.43
same,glycan array binding signal (z-score),[21],-0.406
same,glycan array binding signal (z-score),[22],-0.099
same,glycan array binding signal (z-score),[23],-0.443
same,glycan array binding signal (z-score),[24],-0.447
same,glycan array binding signal (z-score),[25],-0.459
same,glycan array binding signal (z-score),[26],-0.391
same,glycan array binding signal (z-score),[27],-0.469
same,glycan array binding signal (z-score),[28],-0.413
same,glycan array binding signal (z-score),[29],-0.357
same,glycan array binding signal (z-score),[30],0.3
same,glycan array binding signal (z-score),[31],-0.375
same,glycan array binding signal (z-score),[32],-0.44
same,glycan array binding signal (z-score),[33],-0.446
same,glycan array binding signal (z-score),[34],-0.284
same,glycan array binding signal (z-score),[35],-0.42
same,glycan array binding signal (z-score),[36],-0.185
same,glycan array binding signal (z-score),[37],0.122
same,glycan array binding signal (z-score),[38],-0.448
same,glycan array binding signal (z-score),[39],-0.15
same,glycan array binding signal (z-score),[40],0.669
same,glycan array binding signal (z-score),[41],-0.447
same,glycan array binding signal (z-score),[42],-0.47
same,glycan array binding signal (z-score),[43],0.652
